# Laboratory results reported in the supplement of paper PMC8728848.
# The list shows a part of the results.
# B1: BDCA-2 (Homo sapiens), Q8WTT0 (protein)
# chain: MVPEEEPQDREKGLWWFQLKVWSMAVVSILLLSVCFTVSSVVPHNFMYSKTVKRLSKLREYQQYHPSLTCVMEGKDIEDWSCCPTPWTSFQSSCYFISTGMQSWTKSQKNCSVMGADLVVINTREEQDFIIQNLKRNSSYFLGLSDPGGRRHWQWVDQTPYNENVTFWHSGEPNNLDERCAIINFRSSEEWGWNDIHCHVPQKSICKMKKIYI
# Legend:
# Test in all cases: glycan array binding signal (z-score within array); higher = stronger binding
# Conditions in all cases: glycan notation: IUPAC condensed, linker removed
# [1] = target: Neu5Ac(a2-6)Gal(b1-4)GlcNAc(b1-2)[Neu5Ac(a2-6)Gal(b1-4)GlcNAc(b1-6)]Man(a1-6)[Neu5Ac(a2-6)Gal(b1-4)GlcNAc(b1-2)Man(a1-3)][GlcNAc(b1-4)]Man(b1-4)GlcNAc(b1-4)GlcNAc
# Procedure, shortened: (§1)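 The binding signal is a Z-score computed within each array and averaged over linkers. Arrays of the same protein sequence at different concentrations or buffers were also averaged together. Data originate from 3228 arrays in the Consortium for Functional Glycomics database, kept only where the protein sequence was available.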
# [2] = target: Neu5Ac(a2-6)Gal(b1-4)GlcNAc(b1-3)Gal(b1-3)GlcNAc
# Procedure, shortened: as §1
# [3] = target: Neu5Ac(a2-6)Gal(b1-4)GlcNAc(b1-3)Gal(b1-4)GlcNAc
# Procedure, shortened: as §1
# [4] = target: Neu5Ac(a2-6)Gal(b1-4)GlcNAc(b1-3)Gal(b1-4)GlcNAc(b1-2)Man(a1-3)[Neu5Ac(a2-6)Gal(b1-4)GlcNAc(b1-3)Gal(b1-4)GlcNAc(b1-2)Man(a1-6)]GalNAc
# Procedure, shortened: as §1
# [5] = target: Neu5Ac(a2-6)Gal(b1-4)GlcNAc(b1-3)Gal(b1-4)GlcNAc(b1-3)Gal(b1-4)GlcNAc
# Procedure, shortened: as §1
# [6] = target: Neu5Ac(a2-6)Gal(b1-4)GlcNAc(b1-3)Gal(b1-4)GlcNAc(b1-3)Gal(b1-4)GlcNAc(b1-2)Man(a1-3)[Neu5Ac(a2-6)Gal(b1-4)GlcNAc(b1-3)Gal(b1-4)GlcNAc(b1-3)Gal(b1-4)GlcNAc(b1-2)Man(a1-6)]GalNAc
# Procedure, shortened: as §1
# [7] = target: Neu5Ac(a2-6)Gal(b1-4)GlcNAc(b1-3)Gal(b1-4)GlcNAc(b1-3)GalNAc
# Procedure, shortened: as §1
# [8] = target: Neu5Ac(a2-6)Gal(b1-4)GlcNAc(b1-3)Gal(b1-4)GlcNAc(b1-3)[Neu5Ac(a2-6)Gal(b1-4)GlcNAc(b1-3)Gal(b1-4)GlcNAc(b1-6)]GalNAc
# Procedure, shortened: as §1
# [9] = target: Neu5Ac(a2-6)Gal(b1-4)GlcNAc(b1-3)Gal(b1-4)GlcNAc(b1-6)[Gal(b1-3)]GalNAc
# Procedure, shortened: as §1
# [10] = target: Neu5Ac(a2-6)Gal(b1-4)GlcNAc(b1-3)Gal(b1-4)[Fuc(a1-3)]GlcNAc(b1-3)Gal(b1-4)[Fuc(a1-3)]GlcNAc
# Procedure, shortened: as §1
# [11] = target: Neu5Ac(a2-6)Gal(b1-4)GlcNAc(b1-3)GalNAc
# Procedure, shortened: as §1
# [12] = target: Neu5Ac(a2-6)Gal(b1-4)GlcNAc(b1-3)[Neu5Ac(a2-6)Gal(b1-4)GlcNAc(b1-6)]GalNAc
# Procedure, shortened: as §1
# [13] = target: Neu5Ac(a2-6)Gal(b1-4)GlcNAc(b1-6)GalNAc
# Procedure, shortened: as §1
# [14] = target: Neu5Ac(a2-6)Gal(b1-4)GlcNAc(b1-6)[Gal(b1-3)GlcNAc(b1-3)]Gal(b1-4)Glc
# Procedure, shortened: as §1
# [15] = target: Neu5Ac(a2-6)Gal(b1-4)GlcNAc(b1-6)[Gal(b1-3)]GalNAc
# Procedure, shortened: as §1
# [16] = target: Neu5Ac(a2-6)Gal(b1-4)GlcNAc6S
# Procedure, shortened: as §1
# Neu5Ac(a2-6)GalNAc = target: Neu5Ac(a2-6)GalNAc
# Procedure, shortened: as §1
# [17] = target: Neu5Ac(a2-6)GalNAc(b1-4)GlcNAc
# Procedure, shortened: as §1
# [18] = target: Neu5Ac(a2-6)GalNAc(b1-4)GlcNAc6S
# Procedure, shortened: as §1
# [19] = target: Neu5Ac(a2-6)GlcNAc(b1-4)GlcNAc
# Procedure, shortened: as §1
# [20] = target: Neu5Ac(a2-6)GlcNAc(b1-4)GlcNAc(b1-4)GlcNAc
# Procedure, shortened: as §1
# Neu5Ac(a2-8)Neu5Ac = target: Neu5Ac(a2-8)Neu5Ac
# Procedure, shortened: as §1
# [21] = target: Neu5Ac(a2-8)Neu5Ac(a2-3)Gal(b1-3)GalNAc(b1-4)[Neu5Ac(a2-3)]Gal(b1-4)Glc
# Procedure, shortened: as §1
# [22] = target: Neu5Ac(a2-8)Neu5Ac(a2-3)Gal(b1-3)GalNAc(b1-4)[Neu5Ac(a2-8)Neu5Ac(a2-3)]Gal(b1-4)Glc
# Procedure, shortened: as §1
# [23] = target: Neu5Ac(a2-8)Neu5Ac(a2-3)Gal(b1-4)Glc
# Procedure, shortened: as §1
# [24] = target: Neu5Ac(a2-8)Neu5Ac(a2-3)Gal(b1-4)GlcNAc
# Procedure, shortened: as §1
# [25] = target: Neu5Ac(a2-8)Neu5Ac(a2-3)[Gal(b1-3)GalNAc(b1-4)]Gal(b1-4)Glc
# Procedure, shortened: as §1
# [26] = target: Neu5Ac(a2-8)Neu5Ac(a2-3)[GalNAc(b1-4)]Gal(b1-4)Glc
# Procedure, shortened: as §1
# [27] = target: Neu5Ac(a2-8)Neu5Ac(a2-8)Neu5Ac
# Procedure, shortened: as §1
# [28] = target: Neu5Ac(a2-8)Neu5Ac(a2-8)Neu5Ac(a2-3)Gal(b1-4)Glc
# Procedure, shortened: as §1
# [29] = target: Neu5Ac(a2-8)Neu5Ac(a2-8)Neu5Ac(a2-3)[Gal(b1-3)GalNAc(b1-4)]Gal(b1-4)Glc
# Procedure, shortened: as §1
# [30] = target: Neu5Ac(a2-8)Neu5Ac(a2-8)Neu5Ac(a2-3)[GalNAc(b1-4)]Gal(b1-4)Glc
# Procedure, shortened: as §1
# [31] = target: Neu5Ac(a2-8)Neu5Ac(a2-8)Neu5Ac(a2-8)Neu5Ac(a2-3)[GalNAc(b1-4)]Gal(b1-4)Glc
# Procedure, shortened: as §1
# [32] = target: Neu5Ac(a2-8)Neu5Gc(a2-3)Gal(b1-4)GlcNAc
# Procedure, shortened: as §1
# Neu5Ac(b1-6)GalNAc = target: Neu5Ac(b1-6)GalNAc
# Procedure, shortened: as §1
# [33] = target: Neu5Ac(b2-6)Gal(b1-4)GlcNAc
# Procedure, shortened: as §1
# Neu5Ac(b2-6)GalNAc = target: Neu5Ac(b2-6)GalNAc
# Procedure, shortened: as §1
# [34] = target: Neu5Ac9Ac(a2-3)Gal(b1-3)GlcNAc
# Procedure, shortened: as §1
# [35] = target: Neu5Ac9Ac(a2-3)Gal(b1-4)GlcNAc
# Procedure, shortened: as §1
# [36] = target: Neu5Ac9Ac(a2-6)Gal(b1-4)GlcNAc
# Procedure, shortened: as §1
# [37] = target: Neu5Gc(a2-3)Gal(b1-3)GlcNAc
# Procedure, shortened: as §1
# [38] = target: Neu5Gc(a2-3)Gal(b1-3)[Fuc(a1-4)]GlcNAc
# Procedure, shortened: as §1
# Neu5Gc(a2-3)Gal(b1-4)Glc = target: Neu5Gc(a2-3)Gal(b1-4)Glc
# Procedure, shortened: as §1
# [39] = target: Neu5Gc(a2-3)Gal(b1-4)GlcNAc
# Procedure, shortened: as §1
# [40] = target: Neu5Gc(a2-3)Gal(b1-4)GlcNAc(b1-3)Gal(b1-4)GlcNAc(b1-2)Man(a1-3)[Neu5Gc(a2-3)Gal(b1-4)GlcNAc(b1-3)Gal(b1-4)GlcNAc(b1-2)Man(a1-6)]Man(b1-4)GlcNAc(b1-4)GlcNAc
# Procedure, shortened: as §1
# [41] = target: Neu5Gc(a2-3)Gal(b1-4)[Fuc(a1-3)]GlcNAc
# Procedure, shortened: as §1
# [42] = target: Neu5Gc(a2-6)Gal(b1-4)GlcNAc
# Procedure, shortened: as §1
# Neu5Gc(a2-6)GalNAc = target: Neu5Gc(a2-6)GalNAc
# Procedure, shortened: as §1
# [43] = target: Neu5Gc(a2-8)Neu5Ac(a2-3)Gal(b1-4)GlcNAc
# Procedure, shortened: as §1
# [44] = target: Neu5Gc(a2-8)Neu5Gc(a2-3)Gal(b1-4)GlcNAc
# Procedure, shortened: as §1
# [45] = target: Neu5Gc(a2-8)Neu5Gc(a2-3)Gal(b1-4)GlcNAc(b1-3)Gal(b1-4)GlcNAc
# Procedure, shortened: as §1
# [46] = target: Neu5Gc(a2-8)Neu5Gc(a2-6)Gal(b1-4)GlcNAc
# Procedure, shortened: as §1
# [47] = target: Neu5Gc(b2-6)Gal(b1-4)GlcNAc
# Procedure, shortened: as §1
binder,measurement,setting,value
B1,glycan array binding signal (z-score),[1],-0.174
same,glycan array binding signal (z-score),[2],-0.164
same,glycan array binding signal (z-score),[3],-0.203
same,glycan array binding signal (z-score),[4],-0.174
same,glycan array binding signal (z-score),[5],-0.186
same,glycan array binding signal (z-score),[6],-0.155
same,glycan array binding signal (z-score),[7],-0.17
same,glycan array binding signal (z-score),[8],-0.113
same,glycan array binding signal (z-score),[9],-0.149
same,glycan array binding signal (z-score),[10],-0.22
same,glycan array binding signal (z-score),[11],-0.155
same,glycan array binding signal (z-score),[12],-0.167
same,glycan array binding signal (z-score),[13],-0.084
same,glycan array binding signal (z-score),[14],-0.165
same,glycan array binding signal (z-score),[15],-0.164
same,glycan array binding signal (z-score),[16],-0.042
same,glycan array binding signal (z-score),Neu5Ac(a2-6)GalNAc,-0.305
same,glycan array binding signal (z-score),[17],-0.181
same,glycan array binding signal (z-score),[18],-0.184
same,glycan array binding signal (z-score),[19],-0.186
same,glycan array binding signal (z-score),[20],-0.178
same,glycan array binding signal (z-score),Neu5Ac(a2-8)Neu5Ac,-0.243
same,glycan array binding signal (z-score),[21],-0.178
same,glycan array binding signal (z-score),[22],1.5
same,glycan array binding signal (z-score),[23],-0.258
same,glycan array binding signal (z-score),[24],-0.192
same,glycan array binding signal (z-score),[25],-0.129
same,glycan array binding signal (z-score),[26],-0.216
same,glycan array binding signal (z-score),[27],-0.285
same,glycan array binding signal (z-score),[28],-0.34
same,glycan array binding signal (z-score),[29],-0.179
same,glycan array binding signal (z-score),[30],-0.091
same,glycan array binding signal (z-score),[31],-0.318
same,glycan array binding signal (z-score),[32],-0.182
same,glycan array binding signal (z-score),Neu5Ac(b1-6)GalNAc,-0.132
same,glycan array binding signal (z-score),[33],-0.274
same,glycan array binding signal (z-score),Neu5Ac(b2-6)GalNAc,-0.173
same,glycan array binding signal (z-score),[34],-0.17
same,glycan array binding signal (z-score),[35],-0.138
same,glycan array binding signal (z-score),[36],-0.297
same,glycan array binding signal (z-score),[37],-0.239
same,glycan array binding signal (z-score),[38],-0.245
same,glycan array binding signal (z-score),Neu5Gc(a2-3)Gal(b1-4)Glc,-0.115
same,glycan array binding signal (z-score),[39],-0.267
same,glycan array binding signal (z-score),[40],-0.153
same,glycan array binding signal (z-score),[41],-0.238
same,glycan array binding signal (z-score),[42],-0.282
same,glycan array binding signal (z-score),Neu5Gc(a2-6)GalNAc,-0.148
same,glycan array binding signal (z-score),[43],-0.154
same,glycan array binding signal (z-score),[44],-0.189
same,glycan array binding signal (z-score),[45],-0.184
same,glycan array binding signal (z-score),[46],-0.175
same,glycan array binding signal (z-score),[47],-0.172
